In the supplement of paper PMC11417369:
± gives the standard deviation of the averaged measurements. The list shows a part of the results.

Each sequence was assayed on PfAP2-I AP2 domain 3 (GST-tagged) (assay: gcPBM binding intensity (ln(normalized median fluorescence intensity)); higher = stronger DNA binding).
Procedure, shortened: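 The binding buffer was 1× PBS containing 1% milk, 0.2 mg/ml BSA, 0.5% salmon testes DNA and 0.03% Triton X-100. In it, GST-tagged P. falciparum DNA-binding domains expressed in E. coli were applied for 1 h to an Agilent 4 × 180k array of primer-extended double-stranded 36-bp intergenic genomic probes plus negative controls. Binding intensity, read with Alexa488 anti-GST antibody and a 488 nm scan, is the highest Masliner-normalised natural-log median intensity across replicate spots of either probe orientation.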

Sequence | gcPBM binding intensity (ln)
GTATATATATACCATTGTACTTTCGTAAAAATATTT [XGTACX_site4846] | 7.82 ± 0.61
AAAAAAAAAAAAAAAACACACATACACGCACGCACA [CACACA_site7569] | 9.31 ± 0.5
AAATTACACATCCATACACACATATTTTTTTTAATT [CACACA_site5242] | 7.97 ± 0.72
GTATATATGTATATGTGTACACATATTCTTAACTCA [XGTACX_site309] | 8.12 ± 0.35
ATATAAATTGGCAATAGTACATAAAGGCATAGAAAG [XGTACX_site2674] | 8.29 ± 0.69
AGCTGAAAAAAAAGCTTGCACACGTATTTGCTTTAT [CACACA_site1512] | 7.83 ± 0.76
AATATGTAGTAATCAAGTACTAATGTCTTAATTCGG [XGTACX_site308] | 7.49 ± 0.56
GTTTTTTATATAAGGTGGTCAACATTGTAATGTTAA [XGTACX_site3204] | 8.07 ± 0.5
CATATTATATTCTGCTTACACACATATATATATATA [CACACA_site3059] | 9.36 ± 0.29
TTTTTTTGTTATATCCTGCACTTCTTAACTATATTA [GTGCAC_site9807] | 9.15 ± 0.52
AATAATAAGAATAACGCATGCACATATAATATAGAA [TGCATGCA_site3] | 8.28 ± 0.79
ACGATGAATATGTAAAGTACGCAAATGTAACAATAT [XGTACX_site728] | 8.12 ± 0.77
TCATAGGTTCAAAAGGGTACATTAATACATACATAT [XGTACX_site2236] | 7.78 ± 0.53
AAATAAAAAAAGGGAACATGCAATATGTACAAATAT [TGCATGCA_site869] | 8.46 ± 0.64
GTAGTTACATATAGGGTGCTCCAATAGTTGACCTCG | 8.46 ± 0.15
TCTTTTTTCTTTTTTTCACACATTATTTTTTAAATA [CACACA_site5197] | 7.95 ± 0.51
CATATATATTGATATGCACACCTATGTATTGATGTA [CACACA_site8269] | 8.85 ± 0.042
AGCATTTTTCATTTTGCACACATGTTTTATGGGTAT [CACACA_site5839] | 9.725 ± 0.007
TATATGGAAAATTAAAGTACTAAAGAATAAATAGAA [XGTACX_site8796] | 8.06 ± 0.33
TATAAAATAAATTGTGCACACATATTTATAAATATG [CACACA_site2330] | 10.71 ± 0.078
TATAGATACATATACACACACACACCGACATATATA [CACACA_site9138] | 7.84 ± 0.45
AATAATAGAAGCACCCACCCACCACCACCCACACAT [CACACA_negctrl_site1033] | 9.9 ± 0.29

Sequence | gcPBM binding intensity (ln)
GAGAAACTTGTTTAAACATGCACAAAAAAAAAAAAA [TGCATGCA_site340] | 8.38 ± 0.53
TATTTTATTATTATTATTTCTTTATAGTGTATTCTA [CACACA_negctrl_site517] | 7.5 ± 0.71
TATTTTATTATTATTATTAGTATGATTTCTTTATAG [CACACA_negctrl_site550] | 7.49 ± 0.53
GGATAGGCATAACATAGTACGTACAAATATATATAT [XGTACX_site454] | 9.01 ± 0.071
TTTTCGTAACTGATTCAACACACAAAAGGGGGAAAA [CACACA_site8517] | 8.44 ± 0.25
AATATATAGCTAAAAACACACAAATATATACACATA [CACACA_site9203] | 7.62 ± 0.62
TTTTTTGTACCAAAAAAAAAAAAAAGAAAAAAAAAC [CACACA_negctrl_site1416] | 7.82 ± 0.43
TTATAAAAATTTAGTTGTACATGTCAAATTATCAAT [XGTACX_site7229] | 7.74 ± 0.33
TAAGACAATAAATGCTGTACAATTGAATATCTTGGA [XGTACX_site636] | 7.43 ± 0.67
TATATCCCTTAGAATACACACCCATATGAGTGTGAA [CACACA_site8965] | 7.49 ± 0.45
TAATGATAAATACATACACACAAAAAATGATATATA [CACACA_site7258] | 7.54 ± 0.49
AATGTAAAATCTTCATATACATTTAAGTCTGTATTT [TGCATGCA_negctrl_site183] | 7.14 ± 0.68
ACAAAAATTAAATAAAGTACATTTTTAAAATACGTA [XGTACX_site3880] | 7.66 ± 0.43
AAAAGCACAAAAAATACACACACAAAAAATAAAAAA [CACACA_site8545] | 7.8 ± 0.66
TTAACAAATAAACACACACACACACCCAAAAAAAAA [CACACA_site8068] | 8.43 ± 0.22
ATAAAAAAAAAAACAGTAAAATTATAATTATAATTA [TGCATGCA_negctrl_site356] | 7.61 ± 0.81
ATTATTTGAAACTATTGTACATTTAAAAACATTTTT [XGTACX_site4896] | 7.76 ± 0.42
TGGAACCTTTAAAATACACACCCAAATCCTTTGAAA [CACACA_site7671] | 7.57 ± 0.41
AAAAAAAAAAAAAACACACACATATAAATATAAATA [CACACA_site6972] | 8.15 ± 0.45
ATTGGACTATAAATAGGTACACATATATATATATAT [XGTACX_site7562] | 9.38 ± 0.52
TCATATATTCAAAAATTTAAAGTTAATAAAACTTGA [CACACA_negctrl_site1546] | 7.11 ± 0.6
CATATATATTTTATTTGTACGTATAAAAAAACAAAA [XGTACX_site4253] | 8.03 ± 0.17

Sequence | gcPBM binding intensity (ln)
ATATGAAAAAGAACTTGTACTAAAGTGGCATATTAT [XGTACX_site8520] | 8.57 ± 0.38
TAAATACTTGTATATAGTACAAGTTGTTTTTTTTAA [XGTACX_site5643] | 7.21 ± 0.33
TTTTCATTTGTGACAGTGCAAAATGTTATATTAAAA [GTGCAC_site9647] | 9.99 ± 0.3
TATAAAATGATGATATGTACTTATGTAGTTTTTTTA [XGTACX_site8711] | 7.46 ± 0.28
AATATATGGTTTCATGATATTAAATTCAAAATAATG [CACACA_negctrl_site318] | 7.49 ± 0.43
AATAATACATCCTTAGTGCAGAAATAAAAATTAAGC [GTGCAC_site9955] | 9.76 ± 0.24
TATTTATTGTGACACTTATATTATTTTATGATTAAA [CACACA_negctrl_site525] | 7.96 ± 0.45
TTTGTAATAAATAAGAGTACAAGTATGGTTCCACTA [XGTACX_site2579] | 7.97 ± 0.42
TGTATACATTCTGAATGTACGGAACACCTCATAACT [XGTACX_site7240] | 7.71 ± 0.66
TATATATAAAAACACACACACACACCCTATAATTAT [CACACA_site4063] | 8.27 ± 0.15
TTTCAAATTTAATACACACACAAGTATATATTTATC [CACACA_site3947] | 7.78 ± 0.4
TTGTGTTATCACACGAAGGGGATAAGACATAAATGT [TGCATGCA_negctrl_site368] | 7.87 ± 0.91
TTTTTGTTTGAACACTGTACGTATAAATATAAAAGT [XGTACX_site6476] | 8.49 ± 0.2
AATGTGTTTTTTTTTTTTTTTTTTTTCAATCTCTAT [CACACA_negctrl_site794] | 7.46 ± 0.51
GAAAAAAGAAAAAAAAGTACACACATGTATATTAAT [XGTACX_site5265] | 7.71 ± 0.74
AATGTACACCCACCCACACACAAACAAATATATATA [CACACA_site5521] | 8.62 ± 0.79
TTATATTATGTTCAATCAAAAATTATTTTTAAAAAA [XGTACX_negctrl_site595] | 7.67 ± 0.53
TATGTTCCATTTTTTGGTACACATACAATAACTGCT [XGTACX_site2256] | 7.62 ± 0.47
ATTACATACGAGCACACGTAAAAGTATAATATAAAA [GTGCAC_negctrl_site446] | 7.92 ± 0.53
TTTGTATTGTGCAGATGTACATTATAATATTGGATT [XGTACX_site5033] | 8.34 ± 0.41
TTATATATAATATATACACACACATGTATATATAAA [CACACA_site8603] | 7.83 ± 0.48
AACAAATACAAAGAATAGTCATCTGAATGGTGTTAT [GTGCAC_negctrl_site685] | 7.57 ± 0.71

Sequence | gcPBM binding intensity (ln)
ATAAATAAAATAAAAGCACACAAAATGTAAATAATT [CACACA_site8895] | 8.56 ± 0.54
AAAAAAAAAAAAAGTACACACATACCTATAAATATA [CACACA_site6937] | 8.16 ± 0.16
TTTTTATTTTATTAGTGTACTTTATATTTAACAATA [XGTACX_site1175] | 8.13 ± 0.12
TTTATTTTTATAAGAGCATGCACTGTTTAAAATGGT [TGCATGCA_site628] | 8.35 ± 0.34
TTTATATACATTTTAAATTTTAATGTAACCCATGGG [TGCATGCA_negctrl_site115] | 7.34 ± 0.42
TATATATTTATAAATGAACACACACCCAATTTGAAT [CACACA_site9113] | 8.36 ± 0.16
TATTTCTGATTACATACACACATATACAGATATGAC [CACACA_site7490] | 7.82 ± 0.6
TATATACCTATATACACACACATATATAAATAAATA [CACACA_site7341] | 7.88 ± 0.3
ATAAAGATTAATTCAAGTACACATCAAATACTACAA [XGTACX_site8794] | 7.88 ± 0.27
TATATATATTTATGTACACACATCAATCATATTAAC [CACACA_site5127] | 8.18 ± 0.47
CATATACATATATGTAGTACGTGTTCTTCTATATGA [XGTACX_site8344] | 7.91 ± 0.49
AAATTGAATTAGTTAACACACAACTTTTATTTCATA [CACACA_site2840] | 7.62 ± 0.77
TACATATACAGACACACACACACACCCCCACAAAAA [CACACA_site495] | 9.96 ± 0.12
AAATTAATAAGTCACACACACATATATAATATATAT [CACACA_site799] | 7.8 ± 0.61
AATATATACATTTATATACACACCTATATATATATA [CACACA_site1972] | 9.21 ± 0.33
GTTATATGTTATATATATATATATATATATATATAT [TGCATGCA_negctrl_site428] | 9.16 ± 0.69
AGCATCATTTTACACACATGCAAATGTAAAATAGGA [TGCATGCA_site460] | 8.08 ± 0.73
ATATTCATATATACTTCACACACATTTTATCATTCA [CACACA_site8784] | 7.97 ± 0.51
AAAAAAAAAAATAAATAAATAAATAAATATATATAT [TGCATGCA_negctrl_site468] | 8.81 ± 0.11
TACATACATATATATACACACATATATAATATATAT [CACACA_site388] | 7.89 ± 0.27
TATATATACATATACACACATACGTACATACATATA [CACACA_site3585] | 8.07 ± 0.29
